The source of these data is PMC12820563, “FoxP3 forms a head-to-head dimer in vivo and stabilizes its multimerization on adjacent microsatellites”.

The other results are listed elsewhere or left out.

In the test the target is T1, MBP-FoxP1dN (Mus musculus, UniProt P58462 326-579).
T1 sequence: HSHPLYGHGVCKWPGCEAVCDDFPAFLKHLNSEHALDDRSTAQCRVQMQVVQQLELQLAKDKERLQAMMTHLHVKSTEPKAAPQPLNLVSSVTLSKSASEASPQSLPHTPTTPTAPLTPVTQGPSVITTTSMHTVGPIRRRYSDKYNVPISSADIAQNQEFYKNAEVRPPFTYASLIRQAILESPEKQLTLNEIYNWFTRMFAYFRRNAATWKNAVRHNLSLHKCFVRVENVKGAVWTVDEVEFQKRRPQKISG
In words: PD-seq (MBP pull-down with sequencing); 20 mM Tris-HCl pH 7.5, 100 mM NaCl, 1.5 mM MgCl2, 0.4 uM protein, 0.1 uM dsDNA library, 30 min, room temperature, amylose pull-down; high values mean tight binding. The note with it: protein: recombinant; tags: His6-MBP; chain copies: 2; dsDNA, one strand shown. A digest of the protocol:
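Protein and DNA were mixed at 0.4 µM and 0.1 µM and held for 30 min at room temperature in Tris pH 7.5 buffer with NaCl and MgCl2; the protein was a His6-MBP-tagged, N-terminally truncated mouse FoxP3 or FoxP1 fragment from E. coli, and the DNA a Klenow-filled double-stranded degenerate library. Amylose resin captured the complexes, which were washed three times. Binding is read as reads-per-million enrichment of pull-down versus input after Illumina sequencing, with replicates pooled.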
As for “GATGATTGTTCTCCCAGCTGATGAATTGGCGTGATCGAGTAAACAAATTTTCCTAATCTTTCTGTTCAAGCGCCATCTAC”, the binding signal is 0.928 RPM ratio (pull-down/input).
On to “GATGATTGTTCTCCCAGCTGATGAATTTCCTGAATCGAGTAAACAAATTTTCCTAATCTTTCTGTTCAAGCGCCATCTAC”, for which the binding signal was 0.927 RPM ratio (pull-down/input).
“GATGATTGTTCTCCCAGCTGATGAATTAGAAAAGTCGAGTAAACAAATTTTCCTAATCTTTCTGTTCAAGCGCCATCTAC”: the binding signal is 0.926 RPM ratio (pull-down/input).
Take “GATGATTGTTCTCCCAGCTGATGAATTTAGACTATCGAGTAAACAAATTTTCCTAATCTTTCTGTTCAAGCGCCATCTAC”: the binding signal was 1.16 RPM ratio (pull-down/input).
In the case of “GATGATTGTTCTCCCAGCTGATGAATTAGACGGGTCGAGTAAACAAATTTTCCTAATCTTTCTGTTCAAGCGCCATCTAC”, the binding signal was 0.832 RPM ratio (pull-down/input).
For “GATGATTGTTCTCCCAGCTGATGAATTAATCGTCTCGAGTAAACAAATTTTCCTAATCTTTCTGTTCAAGCGCCATCTAC”, the binding signal is 0.872 RPM ratio (pull-down/input).
In the case of “GATGATTGTTCTCCCAGCTGATGAATTTCTACCCTCGAGTAAACAAATTTTCCTAATCTTTCTGTTCAAGCGCCATCTAC”, the binding signal is 0.786 RPM ratio (pull-down/input).
With “GATGATTGTTCTCCCAGCTGATGAATTAGGGGTCTCGAGTAAACAAATTTTCCTAATCTTTCTGTTCAAGCGCCATCTAC” the figure was 0.797 RPM ratio (pull-down/input).
With “GATGATTGTTCTCCCAGCTGATGAATTTTCTTGGTCGAGTAAACAAATTTTCCTAATCTTTCTGTTCAAGCGCCATCTAC” the figure was 0.956 RPM ratio (pull-down/input).
“GATGATTGTTCTCCCAGCTGATGAATTTTTTGCATCGAGTAAACAAATTTTCCTAATCTTTCTGTTCAAGCGCCATCTAC”: the binding signal is 1.45 RPM ratio (pull-down/input).
“GATGATTGTTCTCCCAGCTGATGAATTGTGTGTTTCGAGTAAACAAATTTTCCTAATCTTTCTGTTCAAGCGCCATCTAC”: the binding signal was 1.57 RPM ratio (pull-down/input).
The result for “GATGATTGTTCTCCCAGCTGATGAATTGTCCTCATCGAGTAAACAAATTTTCCTAATCTTTCTGTTCAAGCGCCATCTAC” reads 1.08 RPM ratio (pull-down/input).
Consider “GATGATTGTTCTCCCAGCTGATGAATTTCAAAGGTCGAGTAAACAAATTTTCCTAATCTTTCTGTTCAAGCGCCATCTAC”, for which the binding signal is 0.752 RPM ratio (pull-down/input).
On to “GATGATTGTTCTCCCAGCTGATGAATTGGACGGCTCGAGTAAACAAATTTTCCTAATCTTTCTGTTCAAGCGCCATCTAC”, for which the binding signal was 0.79 RPM ratio (pull-down/input).
With “GATGATTGTTCTCCCAGCTGATGAATTCCATGAATCGAGTAAACAAATTTTCCTAATCTTTCTGTTCAAGCGCCATCTAC” the figure was 0.935 RPM ratio (pull-down/input); with “GATGATTGTTCTCCCAGCTGATGAATTGCTTCGCTCGAGTAAACAAATTTTCCTAATCTTTCTGTTCAAGCGCCATCTAC”, 0.992 RPM ratio (pull-down/input).
In the case of “GATGATTGTTCTCCCAGCTGATGAATTGGAGATTTCGAGTAAACAAATTTTCCTAATCTTTCTGTTCAAGCGCCATCTAC”, the binding signal is 0.827 RPM ratio (pull-down/input).
The result for “GATGATTGTTCTCCCAGCTGATGAATTTAGCCCGTCGAGTAAACAAATTTTCCTAATCTTTCTGTTCAAGCGCCATCTAC” reads 0.795 RPM ratio (pull-down/input).
For the sequence “GATGATTGTTCTCCCAGCTGATGAATTGACACGCTCGAGTAAACAAATTTTCCTAATCTTTCTGTTCAAGCGCCATCTAC”, the binding signal is 1.21 RPM ratio (pull-down/input).
For “GATGATTGTTCTCCCAGCTGATGAATTTCACATCTCGAGTAAACAAATTTTCCTAATCTTTCTGTTCAAGCGCCATCTAC”, the binding signal was 0.829 RPM ratio (pull-down/input).
With “GATGATTGTTCTCCCAGCTGATGAATTAGATGCATCGAGTAAACAAATTTTCCTAATCTTTCTGTTCAAGCGCCATCTAC”, the binding signal is 1.66 RPM ratio (pull-down/input).
“GATGATTGTTCTCCCAGCTGATGAATTTTACATCTCGAGTAAACAAATTTTCCTAATCTTTCTGTTCAAGCGCCATCTAC”: the binding signal was 0.88 RPM ratio (pull-down/input).
With “GATGATTGTTCTCCCAGCTGATGAATTAACTAAATCGAGTAAACAAATTTTCCTAATCTTTCTGTTCAAGCGCCATCTAC” the figure was 1.12 RPM ratio (pull-down/input).
On to “GATGATTGTTCTCCCAGCTGATGAATTCTTTCACTCGAGTAAACAAATTTTCCTAATCTTTCTGTTCAAGCGCCATCTAC”, for which the binding signal is 0.923 RPM ratio (pull-down/input).
For the sequence “GATGATTGTTCTCCCAGCTGATGAATTGATGCAGTCGAGTAAACAAATTTTCCTAATCTTTCTGTTCAAGCGCCATCTAC”, the binding signal is 1.41 RPM ratio (pull-down/input).
Regarding “GATGATTGTTCTCCCAGCTGATGAATTAACACCATCGAGTAAACAAATTTTCCTAATCTTTCTGTTCAAGCGCCATCTAC”, the binding signal was 1.2 RPM ratio (pull-down/input).
For the sequence “GATGATTGTTCTCCCAGCTGATGAATTTTTTACGTCGAGTAAACAAATTTTCCTAATCTTTCTGTTCAAGCGCCATCTAC”, the binding signal was 0.984 RPM ratio (pull-down/input).
The result for “GATGATTGTTCTCCCAGCTGATGAATTGGCCCCATCGAGTAAACAAATTTTCCTAATCTTTCTGTTCAAGCGCCATCTAC” reads 0.877 RPM ratio (pull-down/input).
Take “GATGATTGTTCTCCCAGCTGATGAATTGCTTTTATCGAGTAAACAAATTTTCCTAATCTTTCTGTTCAAGCGCCATCTAC”: the binding signal is 1.26 RPM ratio (pull-down/input).
With “GATGATTGTTCTCCCAGCTGATGAATTTAGTATATCGAGTAAACAAATTTTCCTAATCTTTCTGTTCAAGCGCCATCTAC” the figure was 1.29 RPM ratio (pull-down/input); with “GATGATTGTTCTCCCAGCTGATGAATTGTTAAACTCGAGTAAACAAATTTTCCTAATCTTTCTGTTCAAGCGCCATCTAC”, 1.1 RPM ratio (pull-down/input); with “GATGATTGTTCTCCCAGCTGATGAATTCCCCTGTTCGAGTAAACAAATTTTCCTAATCTTTCTGTTCAAGCGCCATCTAC”, 0.717 RPM ratio (pull-down/input).
